Values joined by “and” are separate entries in the source; they are usually repeats but may differ in a detail not shown here. Equal entries are not always repeated. Structures can show the parent of a compound that is named as a salt. Among all 5,800 compounds or so, about 620 (11%) showed activity.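 How the source made its calls: active = score above a cut-off or among the top three wells of a plate; in these data no inactive exceeds 0.85.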 The list shows a part of the results, in another mix than the full data. Bounds are passed on as bounds.

For the test, the system named is primary human hepatic stellate cells (donor 1). In words: scaled lipid accumulation score (0 = DMSO-like, 1 = nortriptyline-like); higher = stronger HSC inactivation (lipid re-accumulation), active = hit call of the paper. Conditions: 48 h.
Where [1] appears, read: library stock concentration: 10 mM.
[2] abbreviates: library stock concentration: 80 uM.
Setting [3] is: library stock concentration: 400 uM.
Setting [4] is: library stock concentration: 2 mM.
[5] abbreviates: library stock concentration: 3.33 mM.

In the case of `N.N.N.N.N.N.N.N.N.N.N.N.N.N.O.O.[Cl-].[Cl-].[Cl-].[Cl-].[Cl-].[Cl-].[Ru+4].[Ru+5].[Ru+5]` [Ruthenium red], the “scaled lipid accumulation score” value under setting [1] was inactive: ≤ 0.
`CN1CCC(c2c(O)cc(O)c3c(=O)cc(-c4ccccc4Cl)oc23)C1CO` (stereo unspecified) [Riviciclib]: the “scaled lipid accumulation score” value under setting [2] was inactive: 0.019, the “scaled lipid accumulation score” value under setting [3] is inactive: 0.272, the “scaled lipid accumulation score” value under setting [4] was inactive: ≤ -0.001 and the “scaled lipid accumulation score” value under setting [1] was inactive: 0.002.
For `Cn1cc(CNCC2CCN(c3ncc(C(=O)NO)cn3)CC2)c2ccccc21`, the “scaled lipid accumulation score” value under setting [5] was inactive: 0.478.
As for `CC(=O)[C@H]1CC[C@H]2[C@@H]3CCC4=CC(=O)CC[C@]4(C)[C@H]3CC[C@]12C` [Progesterone], the “scaled lipid accumulation score” value was inactive: 0.281. In addition, the “scaled lipid accumulation score” value under setting [5] is inactive: 0.022. For the same compound, the “scaled lipid accumulation score” value (library stock concentration: 6.4 mM) was inactive: 0.529 and inactive: 0.188. Further, the “scaled lipid accumulation score” value under setting [1] was inactive: ≤ 0 and inactive: 0.362.
In the case of `CC(=O)[C@H]1CC[C@H]2[C@@H]3CCC4=CC(=O)CC[C@]4(C)[C@H]3CC[C@]12C`, the “scaled lipid accumulation score” value under setting [1] was inactive: 0.22.
`OC(CN1CCC(Cc2ccc(F)cc2)CC1)c1ccc(Cl)cc1` (stereo unspecified) [Eliprodil]: the “scaled lipid accumulation score” value under setting [1] was inactive: 0.268 and inactive: 0.657.
Regarding `NC(Cc1cc(I)c(Oc2cc(I)c(O)c(I)c2)c(I)c1)C(=O)O` (stereo unspecified) [Thyroxine], the “scaled lipid accumulation score” value under setting [1] was inactive: ≤ 0.
Take `NC(Cc1cc(I)c(Oc2cc(I)c(O)c(I)c2)c(I)c1)C(=O)O` (stereo unspecified) [Thyroxine (L)]: the “scaled lipid accumulation score” value is inactive: 0.125.
Regarding `CC(NC(=O)Cc1cc(F)cc(F)c1)C(=O)NC(C(=O)OC(C)(C)C)c1ccccc1` (stereo unspecified), the “scaled lipid accumulation score” value is inactive: ≤ 0 under setting [5] and inactive: ≤ 0 under setting [1].
For the compound `C[C@]12CC[C@@H]3c4ccc(O)cc4CC[C@H]3[C@@H]1CC[C@@H]2O` [Estradiol-17 beta], the “scaled lipid accumulation score” value is inactive: 0.337.
With `C[C@]12CC[C@@H]3c4ccc(O)cc4CC[C@H]3[C@@H]1CC[C@@H]2O` [Estradiol], the “scaled lipid accumulation score” value under setting [5] was inactive: ≤ 0; the “scaled lipid accumulation score” value (library stock concentration: 7.3 mM) is inactive: 0.061 and inactive: 0.087; the “scaled lipid accumulation score” value under setting [1] is inactive: ≤ 0; the “scaled lipid accumulation score” value (library stock concentration: 18.4 mM) was inactive: 0.222.
In the case of `C[C@]12CC[C@@H]3c4ccc(O)cc4CC[C@H]3[C@@H]1CC[C@@H]2O`, the “scaled lipid accumulation score” value under setting [1] was inactive: ≤ 0.
On to `C[C@]12CC[C@@H]3c4ccc(O)cc4CC[C@H]3[C@@H]1CC[C@@H]2O` [beta-Estradiol], for which, under setting [1], the “scaled lipid accumulation score” value was inactive: 0.557.
On to `CCCCCCCCCCCCCCCCOC[C@H](COP(=O)([O-])OCC[N+]1(C)CCCC1)OC(C)=O` [Pyrrolidino PAF C-16], for which the “scaled lipid accumulation score” value (library stock concentration: 1 mM) was inactive: ≤ 0.
Turning to `Cc1c(NC(=O)N2CCOCC2)ccc2c1c1ccccc1n2C(C)C`, the “scaled lipid accumulation score” value under setting [1] is inactive: ≤ 0.
`CCCN(CCC)S(=O)(=O)c1ccc(C(=O)O)cc1` [Probenecid]: the “scaled lipid accumulation score” value is inactive: ≤ 0. Also, the “scaled lipid accumulation score” value under setting [5] was inactive: ≤ 0. Moreover, the “scaled lipid accumulation score” value (library stock concentration: 7 mM) is inactive: 0.027. The “scaled lipid accumulation score” value under setting [1] is inactive: ≤ -0.001 and inactive: ≤ 0.
For `CCCN(CCC)S(=O)(=O)c1ccc(C(=O)O)cc1`, the “scaled lipid accumulation score” value under setting [1] was inactive: ≤ 0.
Consider `CCNC(=O)Nc1ccc(-c2nc3c(c(N4CCOC[C@@H]4C)n2)CCN(C2COC2)C3)cc1`, for which the “scaled lipid accumulation score” value is inactive: ≤ -0.009 under setting [5] and inactive: 0.169 under setting [1].
For `CCN(CC)C(=O)c1cccnc1`, under setting [1], the “scaled lipid accumulation score” value was inactive: 0.073.
For `CC(C)c1ccc(NC(=O)Cn2cnc3c2c(=O)n(C)c(=O)n3C)cc1`, the “scaled lipid accumulation score” value is, setting by setting: under setting [5], inactive: ≤ 0; under setting [1], inactive: ≤ 0.
Take `Cc1c(C2CCN(CCc3ccccc3)CC2)noc1-c1ccc(Cl)cc1` [L-741,742 hydrochloride]: the “scaled lipid accumulation score” value under setting [1] was inactive: 0.452.
As to `O=C(O)c1ccc(-c2ccc3cc(O)c(C45CC6CC(CC(C6)C4)C5)cc3c2)cc1`, the “scaled lipid accumulation score” value under setting [1] is inactive: 0.021.
Still for that read-out and setting: the figure for `Nc1ccn([C@@H]2O[C@H](CO)[C@@H](O)C2(F)F)c(=O)n1` [Gemcitabine hydrochloride] is inactive: 0.179.
`Nc1ccn([C@@H]2O[C@H](CO)[C@@H](O)C2(F)F)c(=O)n1` [Gemcitabine]: the “scaled lipid accumulation score” value runs as follows: under setting [5], inactive: ≤ 0; under setting [1], inactive: ≤ 0.
Regarding `Nc1ccn([C@@H]2O[C@H](CO)[C@@H](O)C2(F)F)c(=O)n1` [Gemcitabine HCl], the “scaled lipid accumulation score” value (library stock concentration: 7.6 mM) is inactive: ≤ -0.006.
Consider `CN1C(=O)CC(c2ccccc2)C1=O` (stereo unspecified) [Phensuximide], for which the “scaled lipid accumulation score” value is inactive: 0.035.
Turning to `CN1C(=O)CC(c2ccccc2)C1=O` (stereo unspecified), the “scaled lipid accumulation score” value under setting [1] is inactive: ≤ 0.
Regarding `COc1ccccc1N1CCN(CCN(C(=O)C2CCCCC2)c2ccccn2)CC1`, the “scaled lipid accumulation score” value reads like this: under setting [5], inactive: ≤ 0; under setting [1], inactive: ≤ 0 and inactive: 0.094.
As to `CC1CNc2c(cccc2S(=O)(=O)N[C@@H](CCCNC(=N)N)C(=O)N2CC[C@@H](C)C[C@@H]2C(=O)O)C1` (stereo partly specified) [Argatroban], the “scaled lipid accumulation score” value was inactive: 0.03 under setting [5] and inactive: ≤ 0 under setting [1].
Regarding `CN(C)CCN(Cc1ccccc1)c1ccccn1`, under setting [1], the “scaled lipid accumulation score” value was inactive: 0.285.
`CN(C)CCN(Cc1ccccc1)c1ccccn1` [Tripelennamine HCl]: the “scaled lipid accumulation score” value under setting [5] was inactive: ≤ 0 and the “scaled lipid accumulation score” value under setting [1] is inactive: 0.385.
For `CN(C)CCN(Cc1ccccc1)c1ccccn1` [Tripelennamine citrate], the “scaled lipid accumulation score” value (library stock concentration: 4.5 mM) was inactive: 0.077.
For the compound `C=CC1=C(C)c2cc3[nH]c(cc4nc(cc5[nH]c(cc1n2)c(C)c5CCC(=O)O)C(CCC(=O)O)=C4C)c(C)c3C=C` [Protoporphyrin ix], the “scaled lipid accumulation score” value under setting [1] is inactive: ≤ 0.
Take `CO[C@H]1C[C@@H]2CC[C@@H](C)[C@@](O)(O2)C(=O)C(=O)N2CCCC[C@H]2C(=O)O[C@H]([C@H](C)C[C@@H]2CC[C@@H](OCCO)[C@H](OC)C2)CC(=O)[C@H](C)/C=C(\C)[C@@H](O)[C@@H](OC)C(=O)[C@H](C)C[C@H](C)/C=C/C=C/C=C/1C` [Everolimus (RAD001)]: the “scaled lipid accumulation score” value runs as follows: under setting [5], inactive: ≤ 0; under setting [1], inactive: ≤ 0.
Turning to `CO[C@H]1C[C@@H]2CC[C@@H](C)[C@@](O)(O2)C(=O)C(=O)N2CCCC[C@H]2C(=O)O[C@H]([C@H](C)C[C@@H]2CC[C@@H](OCCO)[C@H](OC)C2)CC(=O)[C@H](C)/C=C(\C)[C@@H](O)[C@@H](OC)C(=O)[C@H](C)C[C@H](C)/C=C/C=C/C=C/1C`, the “scaled lipid accumulation score” value reads like this: under setting [2], inactive: ≤ -0.016; under setting [3], inactive: ≤ -0.016; under setting [4], inactive: ≤ -0.016; under setting [1], inactive: 0.089.
For the compound `Fc1ccc(Cl)cc1-c1nc(Nc2ccncc2)c2nccnc2n1`, under setting [1], the “scaled lipid accumulation score” value was inactive: ≤ -0.001.
On to `O=C(/C=C/c1ccccc1)NC(NC(=S)Nc1cccc2cccnc12)C(Cl)(Cl)Cl` (stereo unspecified) [Salubrinal], for which the “scaled lipid accumulation score” value was inactive: ≤ 0 under setting [5]; inactive: 0.048 and inactive: 0.001 under setting [1].

The values are drawn from the supplement of paper PMC9135407.
